Laboratory results reported in PMC4466887.
Results are given in words; binding and its absence hold for the method and conditions named. Binding seen in cells or lysates may run through a third protein. Some results given as binding are weak or reduced against the parent protein; the word gives no strength. For part of these data: Tags and fused reporters may be left off the sequences shown.

Amino acid sequences for entries named in this document (tags omitted).
UniProt Q99836: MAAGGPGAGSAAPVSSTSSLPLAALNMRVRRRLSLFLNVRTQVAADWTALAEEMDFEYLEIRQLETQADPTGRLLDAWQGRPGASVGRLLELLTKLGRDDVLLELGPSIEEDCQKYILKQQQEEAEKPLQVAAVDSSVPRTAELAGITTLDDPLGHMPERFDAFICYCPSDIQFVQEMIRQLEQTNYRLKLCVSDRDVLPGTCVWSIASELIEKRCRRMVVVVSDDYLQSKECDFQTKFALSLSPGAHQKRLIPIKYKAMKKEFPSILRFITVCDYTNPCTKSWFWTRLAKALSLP
UniProt O43734: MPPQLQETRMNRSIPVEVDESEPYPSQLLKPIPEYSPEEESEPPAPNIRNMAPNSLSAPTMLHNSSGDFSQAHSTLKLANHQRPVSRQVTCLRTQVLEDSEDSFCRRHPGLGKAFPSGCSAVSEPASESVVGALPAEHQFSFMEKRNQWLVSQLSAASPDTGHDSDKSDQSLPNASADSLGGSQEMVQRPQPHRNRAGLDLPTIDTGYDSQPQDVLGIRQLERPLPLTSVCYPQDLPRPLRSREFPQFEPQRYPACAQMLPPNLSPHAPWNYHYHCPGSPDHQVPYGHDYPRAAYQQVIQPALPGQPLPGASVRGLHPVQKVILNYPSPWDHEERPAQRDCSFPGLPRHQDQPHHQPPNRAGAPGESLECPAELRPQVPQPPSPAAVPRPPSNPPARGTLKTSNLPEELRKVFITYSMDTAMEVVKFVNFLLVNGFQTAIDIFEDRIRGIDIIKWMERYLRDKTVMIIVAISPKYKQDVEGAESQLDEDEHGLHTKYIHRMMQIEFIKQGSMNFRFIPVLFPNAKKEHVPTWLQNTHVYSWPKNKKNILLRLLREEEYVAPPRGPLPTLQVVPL

Key:
flag-tagged IL-17R = target: T1, flag-tagged IL-17R (UniProt Q96F46); test: co-IP; 16HBE14o cells transfected with flag-tagged IL-17R or MyD88, pre-conditioned with saline for 24 hours, PL for 30 mins; interactions fixed in cells with a cross-linker (DSP in the methods, DSS in the results); RIPA lysate on flag capture resin, eluted with 3X flag peptide; western blot
T1 sequence: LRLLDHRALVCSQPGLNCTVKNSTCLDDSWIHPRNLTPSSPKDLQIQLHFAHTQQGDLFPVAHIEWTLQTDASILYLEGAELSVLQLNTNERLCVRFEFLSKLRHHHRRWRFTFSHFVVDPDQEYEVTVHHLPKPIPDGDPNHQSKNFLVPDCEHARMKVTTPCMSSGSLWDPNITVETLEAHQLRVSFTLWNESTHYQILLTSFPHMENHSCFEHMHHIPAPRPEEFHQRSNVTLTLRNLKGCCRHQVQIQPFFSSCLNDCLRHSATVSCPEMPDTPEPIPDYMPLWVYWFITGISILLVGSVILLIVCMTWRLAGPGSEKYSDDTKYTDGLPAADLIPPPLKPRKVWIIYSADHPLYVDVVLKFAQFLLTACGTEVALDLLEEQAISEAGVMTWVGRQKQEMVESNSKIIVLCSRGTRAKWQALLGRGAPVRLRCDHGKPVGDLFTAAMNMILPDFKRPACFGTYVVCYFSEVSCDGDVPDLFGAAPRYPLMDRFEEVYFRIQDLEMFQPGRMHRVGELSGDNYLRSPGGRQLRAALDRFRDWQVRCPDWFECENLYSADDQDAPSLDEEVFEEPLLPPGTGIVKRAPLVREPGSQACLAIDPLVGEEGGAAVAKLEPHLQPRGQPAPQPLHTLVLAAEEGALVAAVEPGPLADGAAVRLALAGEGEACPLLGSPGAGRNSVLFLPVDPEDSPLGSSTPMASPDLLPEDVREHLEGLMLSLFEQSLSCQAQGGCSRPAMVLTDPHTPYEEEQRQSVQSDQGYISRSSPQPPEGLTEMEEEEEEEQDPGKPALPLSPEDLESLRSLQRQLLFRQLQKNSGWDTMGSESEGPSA

flag-tagged MyD88 = flag-tagged MyD88 (UniProt Q99836); test: as above
[1] = target: MyD88 (myeloid differentiation factor 88) (human (endogenous in 16HBE14o)) (UniProt Q99836); test: condition: only cells pre-conditioned with 1 μM morphine for 24 hours; proximity ligation; as a3, but cells pre-conditioned with 1 μM morphine for 24 hours
[2] = target: MyD88 (myeloid differentiation factor 88) (human (endogenous in 16HBE14o)) (UniProt Q99836); test: proximity ligation; 16HBE14o cells pre-conditioned with saline for 24 hours, treated with 20 nM recombinant IL-17 or 1 μg/ml PL for 15, 30 and 60 minutes; fixed with 10% formalin, permeabilised; primary antibody pairs IL-17R-Act1 or MyD88-Act1 and PLA probes (Olink)
[3] = target: T2, IL-17A receptor (IL-17R) (human (endogenous in 16HBE14o)) (UniProt Q96F46); test: as above
T2 sequence: T1 sequence

binding (flag-tagged IL-17R)	binding (flag-tagged MyD88)	binding [1]	binding [2]	binding [3]	Substance
binds	binds	no binding	binds	binds	Act1/CIKS (from UniProt O43734 1-574)
binds	–	–	–	–	MyD88 (myeloid differentiation factor 88) (from UniProt Q99836 1-296)
